From patent US20200087392A1 (Novartis, published 2020)

Key:
[1] = target: T1, NOV002; test: solution equilibrium titration (SET): NOV002 held at 10 pM, human β-klotho (KLB) titrated in solution; the concentration is that of KLB
T1 construct: also called IgG1 LALA version of NOV004

[2] = target: T2, NOV001; test: solution equilibrium titration (SET): NOV001 held at 10 pM, human β-klotho (KLB) titrated in solution; the concentration is that of KLB
T2 construct: also called IgG1 LALA version of NOV003

[3] = target: T3, NOV004; test: solution equilibrium titration (SET): NOV004 held at 10 pM, human β-klotho (KLB) titrated in solution; the concentration is that of KLB
T3 construct: also called IgG1 DAPA version of NOV002
T3 sequence (heavy, as listed by the source, chain 1 of 2): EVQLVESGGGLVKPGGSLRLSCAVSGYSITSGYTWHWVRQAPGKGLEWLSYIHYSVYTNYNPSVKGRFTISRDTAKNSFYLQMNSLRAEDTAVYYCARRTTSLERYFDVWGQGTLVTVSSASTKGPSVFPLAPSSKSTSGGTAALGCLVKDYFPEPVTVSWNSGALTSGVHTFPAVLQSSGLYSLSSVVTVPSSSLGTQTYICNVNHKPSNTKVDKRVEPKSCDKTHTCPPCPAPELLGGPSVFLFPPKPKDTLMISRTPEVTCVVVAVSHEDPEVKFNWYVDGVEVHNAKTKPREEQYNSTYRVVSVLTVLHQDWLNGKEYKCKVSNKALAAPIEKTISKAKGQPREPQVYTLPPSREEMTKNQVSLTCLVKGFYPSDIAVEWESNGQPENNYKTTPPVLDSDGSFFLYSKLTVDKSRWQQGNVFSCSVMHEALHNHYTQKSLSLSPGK
T3 sequence (light, as listed by the source, chain 2 of 2): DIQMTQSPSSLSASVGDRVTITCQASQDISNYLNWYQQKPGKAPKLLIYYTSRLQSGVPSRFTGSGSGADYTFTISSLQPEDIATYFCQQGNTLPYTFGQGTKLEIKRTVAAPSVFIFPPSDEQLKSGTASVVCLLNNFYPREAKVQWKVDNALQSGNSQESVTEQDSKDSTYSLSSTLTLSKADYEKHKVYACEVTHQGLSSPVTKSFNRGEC

T1 sequence (heavy, as listed by the source, chain 1 of 2): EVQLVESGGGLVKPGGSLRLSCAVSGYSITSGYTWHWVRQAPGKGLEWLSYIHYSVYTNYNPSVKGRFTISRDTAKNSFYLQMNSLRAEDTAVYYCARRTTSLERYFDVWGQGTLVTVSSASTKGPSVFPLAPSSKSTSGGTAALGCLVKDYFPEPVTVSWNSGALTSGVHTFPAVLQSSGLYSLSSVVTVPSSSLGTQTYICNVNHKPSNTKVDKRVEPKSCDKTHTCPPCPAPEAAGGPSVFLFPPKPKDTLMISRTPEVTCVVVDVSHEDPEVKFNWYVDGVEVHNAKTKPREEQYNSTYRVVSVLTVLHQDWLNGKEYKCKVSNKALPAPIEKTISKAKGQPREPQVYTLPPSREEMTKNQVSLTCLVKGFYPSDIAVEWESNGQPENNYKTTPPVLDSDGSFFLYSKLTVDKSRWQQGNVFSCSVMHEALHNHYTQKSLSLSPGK
T1 sequence (light, as listed by the source, chain 2 of 2): as the sequence (light, as listed by the source, chain 2 of 2) above
T2 sequence (VH, as listed by the source, chain 1 of 2): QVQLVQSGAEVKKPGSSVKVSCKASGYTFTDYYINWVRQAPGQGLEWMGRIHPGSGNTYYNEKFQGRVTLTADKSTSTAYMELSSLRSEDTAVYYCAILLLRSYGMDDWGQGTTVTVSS
T2 sequence (VL, as listed by the source, chain 2 of 2): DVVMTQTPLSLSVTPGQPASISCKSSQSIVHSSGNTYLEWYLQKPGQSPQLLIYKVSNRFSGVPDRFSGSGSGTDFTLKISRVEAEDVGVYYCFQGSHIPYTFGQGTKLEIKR

IC50 (read off the curve) [1]: ~0.03 nM
IC50 (read off the curve) [2]: ~0.08 nM
IC50 (read off the curve) [3]: ~0.03 nM
B1: human β-klotho (receptor)
chain: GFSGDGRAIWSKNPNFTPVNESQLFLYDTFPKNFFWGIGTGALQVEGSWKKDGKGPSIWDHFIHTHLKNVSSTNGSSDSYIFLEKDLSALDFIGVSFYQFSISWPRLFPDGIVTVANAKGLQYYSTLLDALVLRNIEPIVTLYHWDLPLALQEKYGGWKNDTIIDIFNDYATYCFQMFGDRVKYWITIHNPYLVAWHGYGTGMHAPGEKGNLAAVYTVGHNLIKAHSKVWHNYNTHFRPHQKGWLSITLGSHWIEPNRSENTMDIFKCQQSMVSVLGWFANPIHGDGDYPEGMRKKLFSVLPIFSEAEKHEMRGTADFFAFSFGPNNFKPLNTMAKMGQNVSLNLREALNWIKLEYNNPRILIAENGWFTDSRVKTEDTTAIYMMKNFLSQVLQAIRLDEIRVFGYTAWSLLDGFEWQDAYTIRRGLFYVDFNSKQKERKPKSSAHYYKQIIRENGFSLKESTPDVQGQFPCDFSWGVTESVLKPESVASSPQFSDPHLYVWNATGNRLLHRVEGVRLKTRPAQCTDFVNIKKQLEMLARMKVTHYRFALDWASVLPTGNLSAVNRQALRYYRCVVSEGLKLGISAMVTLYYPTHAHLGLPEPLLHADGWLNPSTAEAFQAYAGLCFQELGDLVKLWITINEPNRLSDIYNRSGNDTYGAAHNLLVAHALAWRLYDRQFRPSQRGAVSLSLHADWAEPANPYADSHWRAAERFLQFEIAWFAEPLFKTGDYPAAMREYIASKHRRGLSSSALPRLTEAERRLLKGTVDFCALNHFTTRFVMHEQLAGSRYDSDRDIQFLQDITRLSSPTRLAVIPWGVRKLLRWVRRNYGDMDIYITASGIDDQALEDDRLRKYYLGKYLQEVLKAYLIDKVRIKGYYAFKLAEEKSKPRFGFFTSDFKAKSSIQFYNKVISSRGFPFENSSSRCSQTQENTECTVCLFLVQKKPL
notes: Antigen of the SET assay; also called beta-klotho
